Results: publication PMC12820563
This is one part of the list. The list includes weakly bound sequences.

These sequences were tested against T1, MBP-FoxP3dN (UniProt Q99JB6) (assay: PD-seq (MBP pull-down with sequencing)). Details: 20 mM Tris-HCl pH 7.5, 100 mM NaCl, 1.5 mM MgCl2, 0.4 uM protein, 0.1 uM dsDNA library, 30 min, room temperature, amylose pull-down; high values mean tight binding; double strand, one strand shown.
T1 sequence: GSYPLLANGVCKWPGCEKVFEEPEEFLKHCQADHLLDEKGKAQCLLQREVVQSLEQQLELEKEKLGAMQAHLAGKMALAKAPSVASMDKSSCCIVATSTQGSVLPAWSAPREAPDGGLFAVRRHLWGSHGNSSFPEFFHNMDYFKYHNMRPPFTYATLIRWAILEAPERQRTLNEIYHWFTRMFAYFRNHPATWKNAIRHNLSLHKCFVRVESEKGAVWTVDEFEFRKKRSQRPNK

**Q.** For “GATGATTGTTCTCCCAGCTGATGAATTTCTTGTCTCGAGTAAACAAATTTTCCTAATCTTTCTGTTCAAGCGCCATCTAC”, which binding signal (RPM ratio (pull-down/input)) is on record?
**A.** The binding signal (RPM ratio (pull-down/input)) was 0.743.

**Q.** “GATGATTGTTCTCCCAGCTGATGAATTGGGTGCCTCGAGTAAACAAATTTTCCTAATCTTTCTGTTCAAGCGCCATCTAC” was tested. Which binding signal (RPM ratio (pull-down/input)) did it give?
**A.** Its binding signal (RPM ratio (pull-down/input)) is 0.919.

**Q.** Which binding signal (RPM ratio (pull-down/input)) does the source give for “GATGATTGTTCTCCCAGCTGATGAATTGTGAAATTCGAGTAAACAAATTTTCCTAATCTTTCTGTTCAAGCGCCATCTAC” here?
**A.** Its binding signal (RPM ratio (pull-down/input)) is 0.836.

**Q.** With “GATGATTGTTCTCCCAGCTGATGAATTCTTTTGATCGAGTAAACAAATTTTCCTAATCTTTCTGTTCAAGCGCCATCTAC” as the sequence, how does the binding signal (RPM ratio (pull-down/input)) read?
**A.** Its binding signal (RPM ratio (pull-down/input)) is 0.285.

**Q.** Which binding signal (RPM ratio (pull-down/input)) does the source give for “GATGATTGTTCTCCCAGCTGATGAATTGAGGTTTTCGAGTAAACAAATTTTCCTAATCTTTCTGTTCAAGCGCCATCTAC” here?
**A.** Its binding signal (RPM ratio (pull-down/input)) is 0.645.

**Q.** Which binding signal (RPM ratio (pull-down/input)) does the source give for “GATGATTGTTCTCCCAGCTGATGAATTGCGCGGATCGAGTAAACAAATTTTCCTAATCTTTCTGTTCAAGCGCCATCTAC” here?
**A.** The binding signal (RPM ratio (pull-down/input)) was 0.677.

**Q.** For “GATGATTGTTCTCCCAGCTGATGAATTGAGTACGTCGAGTAAACAAATTTTCCTAATCTTTCTGTTCAAGCGCCATCTAC”, which binding signal (RPM ratio (pull-down/input)) is on record?
**A.** The binding signal (RPM ratio (pull-down/input)) was 0.456.

**Q.** With “GATGATTGTTCTCCCAGCTGATGAATTTTCCGAATCGAGTAAACAAATTTTCCTAATCTTTCTGTTCAAGCGCCATCTAC” as the sequence, how does the binding signal (RPM ratio (pull-down/input)) read?
**A.** Its binding signal (RPM ratio (pull-down/input)) is 0.21.

**Q.** With “GATGATTGTTCTCCCAGCTGATGAATTTTGGTGGTCGAGTAAACAAATTTTCCTAATCTTTCTGTTCAAGCGCCATCTAC” as the sequence, how does the binding signal (RPM ratio (pull-down/input)) read?
**A.** The binding signal (RPM ratio (pull-down/input)) was 0.588.

**Q.** How did the binding signal (RPM ratio (pull-down/input)) turn out when “GATGATTGTTCTCCCAGCTGATGAATTATGCATGTCGAGTAAACAAATTTTCCTAATCTTTCTGTTCAAGCGCCATCTAC” was run?
**A.** Its binding signal (RPM ratio (pull-down/input)) is 6.46.

**Q.** Which binding signal (RPM ratio (pull-down/input)) does the source give for “GATGATTGTTCTCCCAGCTGATGAATTCTCTTGCTCGAGTAAACAAATTTTCCTAATCTTTCTGTTCAAGCGCCATCTAC” here?
**A.** The binding signal (RPM ratio (pull-down/input)) was 0.273.

**Q.** With “GATGATTGTTCTCCCAGCTGATGAATTGTGCCCTTCGAGTAAACAAATTTTCCTAATCTTTCTGTTCAAGCGCCATCTAC” as the sequence, how does the binding signal (RPM ratio (pull-down/input)) read?
**A.** The binding signal (RPM ratio (pull-down/input)) was 2.1.

**Q.** For “GATGATTGTTCTCCCAGCTGATGAATTATAGACCTCGAGTAAACAAATTTTCCTAATCTTTCTGTTCAAGCGCCATCTAC”, which binding signal (RPM ratio (pull-down/input)) is on record?
**A.** Its binding signal (RPM ratio (pull-down/input)) is 0.324.

**Q.** How did the binding signal (RPM ratio (pull-down/input)) turn out when “GATGATTGTTCTCCCAGCTGATGAATTGATGGGATCGAGTAAACAAATTTTCCTAATCTTTCTGTTCAAGCGCCATCTAC” was run?
**A.** Its binding signal (RPM ratio (pull-down/input)) is 0.394.

**Q.** With “GATGATTGTTCTCCCAGCTGATGAATTCGCTAGGTCGAGTAAACAAATTTTCCTAATCTTTCTGTTCAAGCGCCATCTAC” as the sequence, how does the binding signal (RPM ratio (pull-down/input)) read?
**A.** Its binding signal (RPM ratio (pull-down/input)) is 0.421.

**Q.** For “GATGATTGTTCTCCCAGCTGATGAATTCACAGTTTCGAGTAAACAAATTTTCCTAATCTTTCTGTTCAAGCGCCATCTAC”, which binding signal (RPM ratio (pull-down/input)) is on record?
**A.** Its binding signal (RPM ratio (pull-down/input)) is 0.407.

**Q.** How did the binding signal (RPM ratio (pull-down/input)) turn out when “GATGATTGTTCTCCCAGCTGATGAATTAGCGTTATCGAGTAAACAAATTTTCCTAATCTTTCTGTTCAAGCGCCATCTAC” was run?
**A.** The binding signal (RPM ratio (pull-down/input)) was 1.41.

**Q.** With “GATGATTGTTCTCCCAGCTGATGAATTGTTCTGCTCGAGTAAACAAATTTTCCTAATCTTTCTGTTCAAGCGCCATCTAC” as the sequence, how does the binding signal (RPM ratio (pull-down/input)) read?
**A.** Its binding signal (RPM ratio (pull-down/input)) is 0.359.

**Q.** With “GATGATTGTTCTCCCAGCTGATGAATTGCACATCTCGAGTAAACAAATTTTCCTAATCTTTCTGTTCAAGCGCCATCTAC” as the sequence, how does the binding signal (RPM ratio (pull-down/input)) read?
**A.** Its binding signal (RPM ratio (pull-down/input)) is 1.4.

**Q.** “GATGATTGTTCTCCCAGCTGATGAATTCTGAAATTCGAGTAAACAAATTTTCCTAATCTTTCTGTTCAAGCGCCATCTAC” was tested. Which binding signal (RPM ratio (pull-down/input)) did it give?
**A.** The binding signal (RPM ratio (pull-down/input)) was 0.528.

**Q.** Which binding signal (RPM ratio (pull-down/input)) does the source give for “GATGATTGTTCTCCCAGCTGATGAATTGATTCGCTCGAGTAAACAAATTTTCCTAATCTTTCTGTTCAAGCGCCATCTAC” here?
**A.** Its binding signal (RPM ratio (pull-down/input)) is 0.331.

**Q.** With “GATGATTGTTCTCCCAGCTGATGAATTAAGTTATTCGAGTAAACAAATTTTCCTAATCTTTCTGTTCAAGCGCCATCTAC” as the sequence, how does the binding signal (RPM ratio (pull-down/input)) read?
**A.** Its binding signal (RPM ratio (pull-down/input)) is 3.65.

**Q.** For “GATGATTGTTCTCCCAGCTGATGAATTCCGCGAGTCGAGTAAACAAATTTTCCTAATCTTTCTGTTCAAGCGCCATCTAC”, which binding signal (RPM ratio (pull-down/input)) is on record?
**A.** The binding signal (RPM ratio (pull-down/input)) was 0.749.

**Q.** With “GATGATTGTTCTCCCAGCTGATGAATTCGTATTTTCGAGTAAACAAATTTTCCTAATCTTTCTGTTCAAGCGCCATCTAC” as the sequence, how does the binding signal (RPM ratio (pull-down/input)) read?
**A.** Its binding signal (RPM ratio (pull-down/input)) is 1.23.

**Q.** Which binding signal (RPM ratio (pull-down/input)) does the source give for “GATGATTGTTCTCCCAGCTGATGAATTGTTTGTATCGAGTAAACAAATTTTCCTAATCTTTCTGTTCAAGCGCCATCTAC” here?
**A.** Its binding signal (RPM ratio (pull-down/input)) is 7.73.

**Q.** How did the binding signal (RPM ratio (pull-down/input)) turn out when “GATGATTGTTCTCCCAGCTGATGAATTAATTGGCTCGAGTAAACAAATTTTCCTAATCTTTCTGTTCAAGCGCCATCTAC” was run?
**A.** Its binding signal (RPM ratio (pull-down/input)) is 1.53.

**Q.** Which binding signal (RPM ratio (pull-down/input)) does the source give for “GATGATTGTTCTCCCAGCTGATGAATTCGACAGTTCGAGTAAACAAATTTTCCTAATCTTTCTGTTCAAGCGCCATCTAC” here?
**A.** The binding signal (RPM ratio (pull-down/input)) was 0.433.

**Q.** For “GATGATTGTTCTCCCAGCTGATGAATTGGTACACTCGAGTAAACAAATTTTCCTAATCTTTCTGTTCAAGCGCCATCTAC”, which binding signal (RPM ratio (pull-down/input)) is on record?
**A.** Its binding signal (RPM ratio (pull-down/input)) is 0.74.

**Q.** For “GATGATTGTTCTCCCAGCTGATGAATTTTAACTCTCGAGTAAACAAATTTTCCTAATCTTTCTGTTCAAGCGCCATCTAC”, which binding signal (RPM ratio (pull-down/input)) is on record?
**A.** The binding signal (RPM ratio (pull-down/input)) was 0.434.

**Q.** “GATGATTGTTCTCCCAGCTGATGAATTTTCTAGTTCGAGTAAACAAATTTTCCTAATCTTTCTGTTCAAGCGCCATCTAC” was tested. Which binding signal (RPM ratio (pull-down/input)) did it give?
**A.** The binding signal (RPM ratio (pull-down/input)) was 0.281.

**Q.** How did the binding signal (RPM ratio (pull-down/input)) turn out when “GATGATTGTTCTCCCAGCTGATGAATTTCGCTCCTCGAGTAAACAAATTTTCCTAATCTTTCTGTTCAAGCGCCATCTAC” was run?
**A.** The binding signal (RPM ratio (pull-down/input)) was 0.836.
